# Measurements taken from the supplement of paper PMC4604168 (melanoma cell lines).
# Some of the results follow. Most values come without repeats; read them as rough.
# Assays:
# Assay in all cases: cell count relative to DMSO control; melanoma cells; higher = more viable cells
# Details in all cases: library dose: standard library concentration; 72 h
# G361 = tested on: G361
# IPC-298 = tested on: IPC-298
# IST-MEL1 = tested on: IST-MEL1
# LB2518-MEL = tested on: LB2518-MEL
# LOXIMVI = tested on: LOXIMVI
# MEL-HO = tested on: MEL-HO
# MZ2-MEL = tested on: MZ2-MEL
# MeWo = tested on: MeWo
# RPMI7951 = tested on: RPMI7951
# RVH-421 = tested on: RVH-421
# SkMel28 = tested on: SkMel28
# SkMel2 = tested on: SkMel2
# SkMel30 = tested on: SkMel30
# SkMel5 = tested on: SkMel5
# UACC257 = tested on: UACC257
# UACC62 = tested on: UACC62
# WM115 = tested on: WM115
# WM1716 = tested on: WM1716
# WM1745 = tested on: WM1745
# WM3526 = tested on: WM3526
# 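Also: cells treated in 1,536-well plates, then fixed and DAPI-stained, with nuclei counted from automated high-throughput microscope images.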
SMILES,cell count (G361) [%],cell count (IPC-298) [%],cell count (IST-MEL1) [%],cell count (LB2518-MEL) [%],cell count (LOXIMVI) [%],cell count (MEL-HO) [%],cell count (MZ2-MEL) [%],cell count (MeWo) [%],cell count (RPMI7951) [%],cell count (RVH-421) [%],cell count (SkMel28) [%],cell count (SkMel2) [%],cell count (SkMel30) [%],cell count (SkMel5) [%],cell count (UACC257) [%],cell count (UACC62) [%],cell count (WM115) [%],cell count (WM1716) [%],cell count (WM1745) [%],cell count (WM3526) [%]
"C[As](C)SC[C@H](NC(=O)CC[C@H](N)C(=O)O)C(=O)NCC(=O)O [Darinaparsin] + C[C@]1(c2nc3c(C(N)=O)cccc3[nH]2)CCCN1 [Veliparib] (first compound 2 µM, partner dose 7 µM)",71.2,89.1,83.3,90.4,64.2,102,85.4,74.5,90.1,73.5,72.7,71.7,76.4,36.3,74.6,80.9,60.9,58.1,81.4,65.4
"Cn1cc(C2=C(c3cn(C4CCN(Cc5ccccn5)CC4)c4ccccc34)C(=O)NC2=O)c2ccccc21 [Enzastaurin] + Cc1ccc(NC(=O)c2cccc(N(C)C)c2)cc1NC(=O)c1ccc(O)cc1 [ZM336372] (first compound 4 µM, partner dose 10 µM)",77.3,114,12.9,54,115,88.9,131,102,67.3,58.4,81.9,71.8,92.5,67.1,75.2,85.1,119,112,57,93.8
"C[C@]12O[C@H](C[C@]1(O)CO)n1c3ccccc3c3c4c(c5c6ccccc6n2c5c31)CNC4=O [Lestaurtinib] + Cn1cncc1[C@@](N)(c1ccc(Cl)cc1)c1ccc2c(c1)c(-c1cccc(Cl)c1)cc(=O)n2C [tipifarnib] (first compound 0.02 µM, partner dose 0.05 µM)",70.8,75.2,74.2,47.5,49.2,74,88.9,65.2,58.4,64,34,56.6,73.2,51.2,81.4,62,46.5,59.4,76.2,59.6
"C[As](C)SC[C@H](NC(=O)CC[C@H](N)C(=O)O)C(=O)NCC(=O)O [Darinaparsin] + Cc1cc([N+](=O)[O-])ccc1NS(=O)(=O)c1cc(Cl)ccc1Cl [FH535] (first compound 2 µM, partner dose 5 µM)",48.2,61.4,65.2,66.1,55.9,57.7,69.4,75.1,72.7,62.6,63.4,91.3,76.2,62.9,71.1,80.5,88.5,52.5,101,83.1
"C[As](C)SC[C@H](NC(=O)CC[C@H](N)C(=O)O)C(=O)NCC(=O)O [Darinaparsin] + c1cc(-c2cnn3cc(-c4ccc(OCCN5CCCCC5)cc4)cnc23)ccn1 [Dorsomorphin] (first compound 2 µM, partner dose 2 µM)",49.3,90,84.2,58.8,83.2,86.7,69.7,59.2,56.5,106,46,100,74.1,45,73.4,67.6,51.4,56.6,36.9,65
"Cn1cc(C2=C(c3cn(C4CCN(Cc5ccccn5)CC4)c4ccccc34)C(=O)NC2=O)c2ccccc21 [Enzastaurin] + C[C@]1(O)C[C@@H](c2nc(-c3ccc4ccc(-c5ccccc5)nc4c3)c3c(N)nccn32)C1 [OSI906] (first compound 4 µM, partner dose 2 µM)",71,97.7,71.7,69.4,69.6,88.6,112,91.3,51,94.2,66.9,69,96,66,74.7,93.7,118,86.9,46.6,95.6
"C[C@]12O[C@H](C[C@]1(O)CO)n1c3ccccc3c3c4c(c5c6ccccc6n2c5c31)CNC4=O [Lestaurtinib] + NCC(=O)Nc1ccc(-n2nc(C(F)(F)F)cc2-c2ccc3c(ccc4ccccc43)c2)cc1 [OSU03012] (first compound 0.02 µM, partner dose 5 µM)",71.4,66.2,83.1,87.4,77.3,84.2,119,98.4,139,77.8,20.3,44.9,42.2,53.5,73.7,66.3,75.1,99.5,101,63.9
"Cn1cc(C2=C(c3cn(C4CCN(Cc5ccccn5)CC4)c4ccccc34)C(=O)NC2=O)c2ccccc21 [Enzastaurin] + CC1(C)NC(=O)N(c2ccc([N+](=O)[O-])c(C(F)(F)F)c2)C1=O [nilutamide] (first compound 4 µM, partner dose 5 µM)",73.4,113,49.6,72.6,75.6,89.2,121,82.7,59.9,12,81.8,58.9,119,84.3,88.1,101,126,77,50.7,69.1
"N.N.[Cl][Pt][Cl] [cisplatin] + O=C(O)[C@@H]1[O][Sb](=[O])([O][Sb]2(=[O])[O][C@H]([C@H](O)CO)[C@H](O)[C@H](C(=O)O)[O]2)[O][C@H]([C@H](O)CO)[C@@H]1O [stibogluconate] (first compound 8 µM, partner dose 10 µM)",89.3,103,106,86.5,62.3,91.4,84.9,104,88.1,76.1,101,109,83.2,104,80.8,78,110,66.8,80.6,86.8
"Cn1cc(C2=C(c3cn(C4CCN(Cc5ccccn5)CC4)c4ccccc34)C(=O)NC2=O)c2ccccc21 [Enzastaurin] + Cn1c(Nc2ccc(C(F)(F)F)cc2)nc2cc(Oc3ccnc(-c4ncc(C(F)(F)F)[nH]4)c3)ccc21 [CHIR265] (first compound 4 µM, partner dose 0.4 µM)",40.2,52.4,82.5,39.1,80.3,76.1,68.6,73.1,41.2,40.6,33.8,43.3,70.8,32.5,70.7,44.9,33.5,48.6,45.9,53.3
"N.N.[Cl][Pt][Cl] [cisplatin] + C[C@@H](Oc1cc(-c2cnn(C3CCNCC3)c2)cnc1N)c1c(Cl)ccc(F)c1Cl [Crizotinib] (first compound 8 µM, partner dose 1 µM)",78.2,85.5,98.4,69.8,78.2,85.6,91.6,85.6,80.2,82.1,85.8,98.5,90.1,70.1,70.5,77.9,64.8,80.4,46.4,74.4
"N.N.[Cl][Pt][Cl] [cisplatin] + CO[C@H]1C[C@@H]2CC[C@@H](C)[C@@](O)(O2)C(=O)C(=O)N2CCCC[C@H]2C(=O)O[C@H]([C@H](C)C[C@@H]2CC[C@@H](OCCO)[C@H](OC)C2)CC(=O)[C@H](C)/C=C(\C)[C@@H](O)[C@@H](OC)C(=O)[C@H](C)C[C@H](C)/C=C/C=C/C=C/1C [everolimus] (first compound 8 µM, partner dose 0.1 µM)",54,67.7,73.4,61.1,63.1,70.7,68.7,69.2,65.4,72.8,33.3,62.8,72.4,51.4,83.9,69.9,75.8,84.1,118,65.7
"N.N.[Cl][Pt][Cl] [cisplatin] + C[C@@H]1CCN(C(=O)CC#N)C[C@@H]1N(C)c1ncnc2[nH]ccc12 [CP690550] (first compound 8 µM, partner dose 5 µM)",93.8,111,92.5,104,80.4,93.1,111,104,98.4,84.2,86.7,84.9,79.3,91.8,84.9,110,93.9,88.7,112,100
"Cn1cc(C2=C(c3cn(C4CCN(Cc5ccccn5)CC4)c4ccccc34)C(=O)NC2=O)c2ccccc21 [Enzastaurin] + Cn1c(=O)n(-c2ccc(C(C)(C)C#N)cc2)c2c3cc(-c4cnc5ccccc5c4)ccc3ncc21 [NVP-BEZ235] (first compound 4 µM, partner dose 0.02 µM)",67.3,88.7,81.2,74.8,87.4,85.7,106,78.2,70,84.7,59.9,76.9,75.2,74.4,114,77.8,82.4,101,97.9,108
"C[C@]12O[C@H](C[C@]1(O)CO)n1c3ccccc3c3c4c(c5c6ccccc6n2c5c31)CNC4=O [Lestaurtinib] + CN(c1ncccc1CNc1nc(Nc2ccc3c(c2)CC(=O)N3)ncc1C(F)(F)F)S(C)(=O)=O [PF562271] (first compound 0.02 µM, partner dose 0.4 µM)",67.4,60,82.9,65.8,91,72.5,86.2,68.5,62.7,78.3,72.4,73.1,66.6,58.9,93.2,80,52.8,81.4,67.4,71.9
"N.N.[Cl][Pt][Cl] [cisplatin] + O=C(O)c1ccc2c(c1)nc(Nc1cccc(Cl)c1)c1ccncc12 [CX4945] (first compound 8 µM, partner dose 2 µM)",60.9,89.1,83.7,110,43.9,56.4,77.5,90.1,70,96.2,116,105,85.1,99.4,72.5,90.4,110,91.4,62.2,103
"C[C@]12O[C@H](C[C@]1(O)CO)n1c3ccccc3c3c4c(c5c6ccccc6n2c5c31)CNC4=O [Lestaurtinib] + C[C@@H]1CCN(C(=O)CC#N)C[C@@H]1N(C)c1ncnc2[nH]ccc12 [CP690550] (first compound 0.02 µM, partner dose 5 µM)",107,81.5,117,73.2,84.3,95.7,124,81.1,126,117,70.2,107,72.7,58.2,107,85.7,83.1,106,111,65.5
